“Also recorded” adds a separate entry of the source. For part of its entries the source gives two or more results. The other results are left out here. How the calls were made is not given here. The source may hold further records. The records of an entry do not match, cause unknown; some may be repeats, others may stem from another dose, organism or construct than stated. Records carry a tag for their origin. A, B and so on number the origins entry by entry. Counts like (3×) stand for listed records that agree.
System: CCRIS mutagenicity, Ames/micronucleus/aberration tests
Assay: CCRIS mutagenicity studies
[1] = End Point: IN VITRO CHROMOSOMAL ABERRATIONS, Test System: CHL CELLS, Metabolic Activation: NONE
[2] = Test System: AMES SALMONELLA TYPHIMURIUM, Strain/Indicator: TA1535, Metabolic Activation: NONE, Method: PREINCUBATION
[3] = Test System: AMES SALMONELLA TYPHIMURIUM, Strain/Indicator: TA98, Metabolic Activation: RAT, LIVER, S-9, AROCLOR 1254, Method: STANDARD PLATE
[4] = Test System: AMES SALMONELLA TYPHIMURIUM, Strain/Indicator: TA100, Metabolic Activation: RAT, LIVER, S-9, AROCLOR 1254, Method: STANDARD PLATE
[5] = Test System: AMES SALMONELLA TYPHIMURIUM, Strain/Indicator: TA100, Metabolic Activation: NONE, Method: STANDARD PLATE
[6] = End Point: IN VITRO CHROMOSOMAL ABERRATIONS, Test System: CHO CELLS, Metabolic Activation: RAT, LIVER, S-9, AROCLOR 1254
[7] = Test System: AMES SALMONELLA TYPHIMURIUM, Strain/Indicator: TA100, Metabolic Activation: MOUSE, LIVER, S-9, Method: PREINCUBATION
[8] = Test System: AMES SALMONELLA TYPHIMURIUM, Strain/Indicator: TA98, Metabolic Activation: NONE, Method: STANDARD PLATE

Structure (SMILES): CNN
- mutagenic call [1]: inactive; negative; authors report results as equivocal; also recorded: active; positive (structural changes) (2×)
- mutagenic call (Test System: AMES SALMONELLA TYPHIMURIUM, Strain/Indicator: TA100, Metabolic Activation: NONE, Method: PREINCUBATION): inactive; negative and active; positive
- mutagenic call [2]: inactive; negative [study A] and active; positive [study A] and inactive; negative [study B]
- mutagenic call (Test System: E.COLI, Strain/Indicator: WP2UVRA, Metabolic Activation: NONE, Method: PREINCUBATION): inactive; negative and active; positive

Structure (SMILES): Nc1ccc2cc3ccccc3cc2c1
- mutagenic call (Test System: AMES SALMONELLA TYPHIMURIUM, Strain/Indicator: TA1535, Metabolic Activation: NONE, Method: STANDARD PLATE): inactive; negative [study A] and active; positive [study B] and inactive; negative [study C]

Structure (SMILES): Nc1ccccc1-c1ccccc1
- mutagenic call [3]: inactive; negative [study A] and active; positive [study B]
- mutagenic call [4]: inactive; negative [study A] and active; positive [study B] and active; positive [study C]

Structure (SMILES): CCN(CC)C(=O)/C(Cl)=C(\C)OP(=O)(OC)OC
- mutagenic call [5]: inactive; negative and active; positive

Structure (SMILES): O=C1OCC(Cl)=C1Cl
- mutagenic call [5]: inactive; negative [study A] and active; positive [study B]

Structure (SMILES): O=C(O)C(Cl)Cl
- mutagenic call [1]: active; positive (structural changes); authors report equivocal results for ploidy chang; also recorded: active; positive (structural changes)
- mutagenic call (Test System: Ames Salmonella typhimurium, Strain/Indicator: TA98, Metabolic Activation: None, Method: Preincubation): inactive; negative (ntp described results in one trial as equivocal); also recorded: inactive; negative

Structure (SMILES): O=[N+]([O-])c1ccc(Nc2ccccc2O)c([N+](=O)[O-])c1
- mutagenic call [2]: active; positive [0.3 to 33 µg/plate] and inactive; negative [1 to 66 µg/plate]

Structure (SMILES): [O-][Br+2]([O-])O
- mutagenic call (Test System: AMES SALMONELLA TYPHIMURIUM, Strain/Indicator: TA97, Metabolic Activation: NONE, Method: PREINCUBATION): inactive; negative [study A] and active; positive [study B]

Structure (SMILES): O=C(O)CCCl
- mutagenic call (Test System: Ames Salmonella typhimurium, Strain/Indicator: TA1537, Metabolic Activation: None, Method: Preincubation): inactive; negative (2×); also recorded: inactive; negative (two experimental trials)

Structure (SMILES): Cc1cc(-c2ccc(N/N=C3/C(=O)c4c(N)cc(S(=O)(=O)O)cc4C=C3S(=O)(=O)O)c(C)c2)ccc1N/N=C1/C(=O)c2c(N)cc(S(=O)(=O)O)cc2C=C1S(=O)(=O)O
- mutagenic call (Test System: AMES SALMONELLA TYPHIMURIUM, Strain/Indicator: TA1538, Metabolic Activation: RAT, LIVER, S-9, AROCLOR 1254, Method: STANDARD PLATE): active; positive [study A] and inactive; negative [study B]

Structure (SMILES): CCOC(=O)CC(SP(=O)(OC)OC)C(=O)OCC (configuration not stated)
- mutagenic call [6]: inactive; negative; also recorded: inactive; negative; previous trial yielded positive result at 3010 ug/ml but no dose-respo

Structure (SMILES): c1ccc2n[nH]nc2c1
- mutagenic call (Test System: E. COLI, Strain/Indicator: WP2 UVRA, Metabolic Activation: HAMSTER, LIVER, S-9, AROCLOR 1254, Method: STANDARD PLATE): inactive; negative [0.3 to 333.3 µg/plate] and active; positive [10 to 3333.3 µg/plate]
- mutagenic call (Test System: E. COLI, Strain/Indicator: WP2 UVRA, Metabolic Activation: HAMSTER, LIVER, S-9, Method: STANDARD PLATE): inactive; negative [0.3 to 333.3 µg/plate] and active; positive [1 to 10000 µg/plate]
- mutagenic call (Test System: E. COLI, Strain/Indicator: WP2 UVRA, Metabolic Activation: MOUSE, LIVER, S-9, Method: STANDARD PLATE): inactive; negative [0.3 to 333.3 µg/plate] and active; positive [1 to 1000 µg/plate] and active; positive [3.3 to 3333.3 µg/plate]
- mutagenic call (Test System: E. COLI, Strain/Indicator: WP2 UVRA, Metabolic Activation: NONE, Method: STANDARD PLATE): inactive; negative [0.3 to 3333.3 µg/plate] and active; positive [1 to 10000 µg/plate]
- mutagenic call (Test System: E. COLI, Strain/Indicator: WP2 UVRA, Metabolic Activation: RAT, LIVER, S-9, AROCLOR 1254, Method: STANDARD PLATE): inactive; negative [0.3 to 333.3 µg/plate] and active; positive [1 to 10000 µg/plate]
- mutagenic call (Test System: E. COLI, Strain/Indicator: WP2 UVRA, Metabolic Activation: RAT, LIVER, S-9, Method: STANDARD PLATE): inactive; negative [0.3 to 333.3 µg/plate] and active; positive [1 to 10000 µg/plate] and active; positive [3.3 to 3333.3 µg/plate]

Structure (SMILES): CCN(CC)CCCC(C)Nc1ccnc2cc(Cl)ccc12 (configuration not stated)
- mutagenic call [5]: inactive; negative [study A] and active; positive [study B]

Structure (SMILES): O=C1OCC(C(Cl)Cl)=C1Cl
- mutagenic call [4]: active; positive [study A] and inactive; negative [study B]

Structure (SMILES): CCCN(CCC)N=O
- mutagenic call [7]: inactive; negative [study A] and active; positive [study B]
- mutagenic call (Test System: AMES SALMONELLA TYPHIMURIUM, Strain/Indicator: TA2410, Metabolic Activation: NONE, Method: HOST-MEDIATED): inactive; negative and active; positive
- mutagenic call (Test System: AMES SALMONELLA TYPHIMURIUM, Strain/Indicator: TA2678, Metabolic Activation: NONE, Method: HOST-MEDIATED): inactive; negative and active; positive

Structure (SMILES): BrCCCCBr
- mutagenic call [1]: active; positive (structural changes) (2×); also recorded: active; positive (structural and ploidy changes)
- mutagenic call (Test System: AMES SALMONELLA TYPHIMURIUM, Strain/Indicator: TA100, Metabolic Activation: RAT LIVER S-9, PHENOBARBITAL AND BETA-NAPHTHOFLAVONE, Method: PREINCUBATION): inactive; negative and active; positive

Structure (SMILES): CCC1CO1 (configuration not stated)
- mutagenic call [6]: inactive; negative (2×) and active; positive

Structure (SMILES): c1ccc(C2CO2)cc1 (configuration not stated)
- mutagenic call [1]: active; positive (structural changes); authors report equivocal results for ploidy chang; also recorded: active; positive (structural changes)
- mutagenic call (Test System: AMES SALMONELLA TYPHIMURIUM, Strain/Indicator: TA98, Metabolic Activation: NONE, Method: PREINCUBATION): active; positive [study A] and inactive; negative [study B]

Structure (SMILES): O=c1c(O)c(-c2ccc(O)c(O)c2)oc2cc(O)cc(O)c12
- mutagenic call (Test System: AMES SALMONELLA TYPHIMURIUM, Strain/Indicator: TA97, Metabolic Activation: RAT, LIVER, S9, AROCLOR 1254, Method: STANDARD PLATE): inactive; negative [study A] and active; positive [study B]
- mutagenic call (Test System: AMES SALMONELLA TYPHIMURIUM, Strain/Indicator: TA102, Metabolic Activation: NONE, Method: STANDARD PLATE): active; positive [study A] and inactive; negative [study B]

Structure (SMILES): CC(=O)c1ccc[nH]1
- mutagenic call [8]: active; positive [study A] and inactive; negative [study B]
- mutagenic call [3]: inactive; negative [study A] and active; positive [study B]

Structure (SMILES): COc1cccc2c1C(=O)c1c(O)c3c(c(O)c1C2=O)C[C@@](O)(C(=O)CO)C[C@@H]3O[C@H]1C[C@H](N)[C@H](O)[C@H](C)O1
- mutagenic call (End Point: In vitro chromosomal aberrations, Test System: Chinese hamster ovary (CHO-9) cells, Metabolic Activation: None): active; positive (structural changes); pretreatment with curcumin increased the effect o; also recorded: active; positive (structural changes)
- mutagenic call (End Point: In vivo micronucleus, Test System: Bone marrow erythrocytes, Species: Mouse, Strain/Sex: Swiss albino/Male, Route: Intraperitoneal): active; positive (weaker response than with doxorubicin alone); also recorded: active; positive (all regimens)
- mutagenic call [5]: inactive; negative [study A] and active; positive [study B] and inactive; negative [study C]
- mutagenic call (Test System: CHINESE HAMSTER V-79, Strain/Indicator: V-79/6-THIOGUANINE, Metabolic Activation: NONE, Method: SUSPENSION/PLATE): inactive; negative [study A] and active; positive [study B]

Structure (SMILES): CCN(C)N=O
- mutagenic call [7]: inactive; negative [study A] and active; positive [study B]

Structure (SMILES): CC1(C)[C@H](C(=O)O[C@H](C#N)c2cccc(Oc3ccccc3)c2)[C@@H]1C=C(Cl)Cl
- mutagenic call (End Point: In vitro chromosomal aberrations, Test System: Human peripheral blood lymphocytes): active; positive (structural changes); also recorded: active; positive (structural changes). commercial product containing 10% alpha-cypermet

Structure (SMILES): C=CC(=O)OCC
- mutagenic call (Test System: MOUSE LYMPHOMA, Strain/Indicator: L5178Y (TK+/TK-), Metabolic Activation: NONE, Method: SUSPENSION/PLATE): active; positive [study A]; also recorded: active; positive [study B]; also recorded: active; positive. reevaluation of results: positive [study C]

Structure (SMILES): O=C1[C@H]2CC=CC[C@H]2C(=O)N1SC(Cl)(Cl)Cl
- mutagenic call [4]: active; positive and inactive; negative
- mutagenic call (Test System: AMES SALMONELLA TYPHIMURIUM, Strain/Indicator: TA104, Metabolic Activation: NONE, Method: STANDARD PLATE): active; positive (2×) and inactive; negative

Structure (SMILES): CN(C)C(=S)SSC(=S)N(C)C
- mutagenic call [8]: active; positive [study A] and active; positive [study B] and inactive; negative [study C]

Structure (SMILES): CCN(CC)c1ccc(N)cc1
- mutagenic call (End Point: IN VITRO CHROMOSOMAL ABERRATIONS, Test System: CHINESE HAMSTER LUNG CELLS (CHL), Metabolic Activation: NONE): active; positive at highest dose (structural changes); also recorded: inactive; negative; also recorded: active; positive (structural changes)

— PubChem BioAssay AID1259407 (Chemical Carcinogenesis Research Information System (CCRIS), 2018)
